Source: PubChem BioAssay AID268 (DTP/NCI, 2004)
A number of entries come with more than one value. The other results are left out here. The source may hold further records. Values given together differ for a reason that is not stated; they may come from other doses, times, organisms or constructs than stated. Marks such as (2×) stand for listed records that agree.

Tested on: CD2F1 mice, P1798 lymphosarcoma sc, tumor weight T/C
Assay: NCI In Vivo Anticancer Drug Screen. Data for tumor model P1798 Lymphosarcoma (subcutaneous) in CD2F1 (CDF1) mice
Details: endpoint: mean tumor weight, higher = larger tumour
Description: The antitumor activity of compounds was measured in mice bearing transplantable tumors. Survival or tumor size were measured and the results are expressed as the measurement made in the treated group (T) divided by the measurement made in the vehicle treated control group (C). The tumor model used in this assay is P1798 Lymphosarcoma (subcutaneous) in CD2F1 (CDF1) mice

[1] = dose: 25.0 mg/kg/injection, schedule: Q01DX010 (sc), vehicle: steriod suspending solution
[2] = dose: 50.0 mg/kg/injection, schedule: Q01DX010 (sc), vehicle: steriod suspending solution
[3] = dose: 100.0 mg/kg/injection, schedule: Q01DX010 (sc), vehicle: steriod suspending solution
[4] = dose: 6.25 mg/kg/injection, schedule: Q01DX010 (sc), vehicle: steriod suspending solution
[5] = dose: 12.5 mg/kg/injection, schedule: Q01DX010 (sc), vehicle: steriod suspending solution

Row | Compound | T/C [1] | T/C [2] | T/C [3] | further results
1 | CC(=O)[C@@]12OC(C)(C)O[C@@H]1C[C@H]1[C@@H]3C[C@H](C)C4=CC(=O)CC[C@]4(C)[C@H]3CC[C@@]12C | 50 % of control and 107 % of control | 11 % of control and 119 % of control | 4 % of control and 114 % of control | –
2 | C=C1C[C@H]2[C@@H]3C=C(C)C4=CC(=O)CC[C@]4(C)[C@H]3CC[C@]2(C)[C@@]1(OC(C)=O)C(C)=O | – | – | 106 % of control and 156 % of control | –
3 | C[C@@H]1C[C@H]2[C@@H]3CCC4=CC(=O)C=C[C@]4(C)[C@@]3(F)[C@@H](O)C[C@]2(C)[C@@]1(O)C(=O)CO | – | – | – | T/C [4]: 2 % of control and 114 % of control
4 | C[C@]12CC[C@@H]3c4ccc(O)cc4CC[C@H]3[C@@H]1C[C@@H](O)[C@@H]2O | – | 52 % of control and 97 % of control | – | T/C [5]: 66 % of control and 94 % of control
5 | C[C@]12C=CC(=O)C=C1CC[C@@H]1[C@@H]2CC[C@]2(C)OC(=O)CC[C@@H]12 | – | 79 % of control and 118 % of control | – | –
6 | CC(=O)OCC(=O)[C@@]1(O)CC[C@H]2[C@@H]3CCC4=CC(=O)[C@H](C)C[C@]4(C)[C@@]3(F)[C@@H](O)C[C@@]21C | – | – | – | T/C [5]: 2 % of control (2×) and 65 % of control
7 | C[C@]12CC[C@@H]3c4ccc(O)cc4CC[C@H]3[C@@H]1CC(=O)[C@@H]2O | – | – | – | T/C [4]: 79 % of control and 118 % of control
8 | O=CN(O)CC(=O)O | – | – | – | T/C (dose: 125.0 mg/kg/injection, schedule: Q01DX010 (ip), vehicle: saline): 59 % of control and 100 % of control; T/C (dose: 500.0 mg/kg/injection, schedule: Q01DX010 (ip), vehicle: saline): 54 % of control and 110 % of control
9 | CC(=O)O[C@]1(C(C)=O)CC[C@H]2[C@@H]3C[C@H](C)C4=CC(=O)C=C[C@]4(C)[C@@]3(F)[C@@H](O)C[C@@]21C | – | 6 % of control (2×) and 34 % of control | 3 % of control, 4 % of control, 32 % of control | –
10 | C=CCOc1ccc2c(c1)CC[C@@H]1[C@@H]2CC[C@]2(C)[C@@H](O)[C@@H](O)C[C@@H]12 | 52 % of control and 86 % of control | 62 % of control and 95 % of control | – | –
11 | CC(=O)[C@@]1(O)CC[C@H]2[C@@H]3C[C@H](C)C4=CC(=O)C=C[C@]4(C)[C@@]3(F)[C@@H](O)C[C@@]21C | 15 % of control, 17 % of control, 51 % of control | 2 % of control, 4 % of control, 36 % of control | 3 % of control, 6 % of control, 35 % of control | –
12 | C=CCOc1ccc2c(c1)CC[C@@H]1[C@@H]2CC[C@]2(C)[C@@H](O)[C@H](O)C[C@@H]12 | 64 % of control and 96 % of control | 44 % of control and 82 % of control | – | T/C [4]: 67 % of control and 112 % of control; T/C [5]: 57 % of control and 96 % of control
13 | CC(=O)O[C@H]1CC[C@H]2[C@@H]3CC[C@H]4CCCC[C@]4(C)[C@H]3CC[C@]12C | – | – | 98 % of control and 158 % of control | –
14 | CC1C[C@@H]2[C@H]([C@@H](O)C[C@@]3(C)[C@H]2CC[C@]3(O)C(=O)CF)[C@@]2(C)CCC(=O)C=C12 (some centres undefined) | – | – | 17 % of control, 23 % of control, 106 % of control | –
15 | C[C@]12CCC(=O)C=C1CC[C@@H]1[C@@H]2[C@@H](O)C[C@@]2(C)[C@H]1CC[C@]2(O)C(=O)CO | 6 % of control, 7 % of control, 112 % of control | 2 % of control, 3 % of control, 92 % of control | – | T/C [5]: 58 % of control, 82 % of control, 102 % of control
16 | C[C@]12C=CC(=O)C=C1CC[C@H]1[C@@H]3C[C@@H](O)[C@](O)(C(=O)CO)[C@@]3(C)C[C@H](O)[C@@]12F | 2 % of control, 5 % of control, 30 % of control | 2 % of control and 29 % of control | – | T/C [5]: 2 % of control, 3 % of control, 103 % of control
17 | C[C@]12C[C@H](O)[C@H]3[C@@H](CCC4=CC(=O)CC[C@@]43C)[C@@H]1CC[C@@H]2C(=O)CO | – | 38 % of control, 57 % of control, 97 % of control | 5 % of control, 7 % of control, 91 % of control | –
18 | CC(=O)OCC(=O)[C@@]1(O)CC[C@H]2[C@@H]3CCC4=CC(=O)[C@H](C)C[C@]4(C)[C@H]3[C@@H](O)C[C@@]21C | 4 % of control, 14 % of control, 110 % of control | 3 % of control (2×) and 98 % of control | 2 % of control (2×) and 30 % of control | –
19 | C[C@]12CC[C@@H]3c4ccc(O)cc4CC[C@H]3[C@@H]1C[C@H](O)C2 | 82 % of control and 114 % of control | – | – | –
20 | C=CCOc1ccc2c(c1)CC[C@@H]1[C@@H]2CC[C@@]2(C)[C@H]1CC[C@]2(C)O | 52 % of control and 96 % of control | 38 % of control and 76 % of control | – | T/C [4]: 59 % of control and 89 % of control; T/C [5]: 71 % of control and 101 % of control
21 | C#C[C@]1(O)CC[C@H]2[C@@H]3CCc4cc(O)ccc4[C@H]3CC[C@@]21C | – | 63 % of control and 92 % of control | – | T/C [4]: 50 % of control and 85 % of control; T/C [5]: 56 % of control and 98 % of control
22 | CC(=O)[C@H]1CC[C@H]2[C@@H]3C[C@H](C)C4=CC(=O)CC[C@]4(C)[C@H]3C(=O)C[C@]12C | – | 61 % of control, 79 % of control, 102 % of control | – | –
23 | COc1cc2c3c(c4ccc(OC)c(OC)c4c2cc1OC)CN1CCC[C@@H]1C3 | – | – | – | T/C (dose: 2.5 mg/kg/injection, schedule: Q01DX010 (ip), vehicle: saline): 61 % of control and 100 % of control
24 | C[C@]12C=CC(=O)C=C1CC[C@@H]1[C@@H]2[C@@H](O)C[C@@]2(C)[C@H]1CC[C@]2(O)C(=O)CO | 7 % of control, 9 % of control, 112 % of control | 2 % of control (2×) and 121 % of control | 2 % of control, 4 % of control, 107 % of control | –
